# Screen size: about 310,000 compounds; about 14,000 (4.5%) showed an effect of 50% or more. Effects have a minus sign here. The list shows a part of the results.
# Target: human ether-à-go-go-related gene (hERG) potassium channel (human, UniProt Q12809)
# Experiment: primary screen, population patch clamp on CHO cells stably expressing hERG
# 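Further: peak tail current of the secondary pulse compared with the same well before compound.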
# Chain of human ether-à-go-go-related gene (hERG) potassium channel (Q12809 whole entry, looked up): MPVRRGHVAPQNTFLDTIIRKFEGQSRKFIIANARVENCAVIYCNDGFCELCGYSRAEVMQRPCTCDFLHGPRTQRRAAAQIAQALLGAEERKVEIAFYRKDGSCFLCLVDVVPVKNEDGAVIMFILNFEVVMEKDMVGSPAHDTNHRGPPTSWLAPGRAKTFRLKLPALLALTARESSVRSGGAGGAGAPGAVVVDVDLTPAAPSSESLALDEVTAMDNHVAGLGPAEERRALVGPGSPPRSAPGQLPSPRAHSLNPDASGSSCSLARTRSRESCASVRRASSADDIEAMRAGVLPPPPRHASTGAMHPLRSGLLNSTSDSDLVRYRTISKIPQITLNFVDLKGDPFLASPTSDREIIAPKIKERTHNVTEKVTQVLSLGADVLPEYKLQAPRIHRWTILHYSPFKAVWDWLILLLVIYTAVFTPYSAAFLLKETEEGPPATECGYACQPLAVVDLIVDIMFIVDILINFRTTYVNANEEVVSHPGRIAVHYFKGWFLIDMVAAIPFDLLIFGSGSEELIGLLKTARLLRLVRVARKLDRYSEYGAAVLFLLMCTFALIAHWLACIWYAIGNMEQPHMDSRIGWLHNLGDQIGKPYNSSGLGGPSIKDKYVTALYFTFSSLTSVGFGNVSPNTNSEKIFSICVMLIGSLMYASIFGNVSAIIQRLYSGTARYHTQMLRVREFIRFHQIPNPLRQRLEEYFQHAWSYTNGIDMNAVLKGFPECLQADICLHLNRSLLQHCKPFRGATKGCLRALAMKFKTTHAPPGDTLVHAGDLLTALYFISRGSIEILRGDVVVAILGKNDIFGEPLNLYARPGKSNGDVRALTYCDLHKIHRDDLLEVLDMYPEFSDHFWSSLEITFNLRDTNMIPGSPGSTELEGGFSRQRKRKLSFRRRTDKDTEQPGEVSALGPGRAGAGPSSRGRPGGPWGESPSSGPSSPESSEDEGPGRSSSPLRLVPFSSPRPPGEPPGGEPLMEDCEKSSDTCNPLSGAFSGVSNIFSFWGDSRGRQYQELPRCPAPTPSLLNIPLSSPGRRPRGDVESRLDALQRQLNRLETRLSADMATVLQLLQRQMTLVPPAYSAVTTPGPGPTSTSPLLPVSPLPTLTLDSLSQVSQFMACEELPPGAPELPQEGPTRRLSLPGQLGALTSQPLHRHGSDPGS
row,Compound,"hERG current change (%, negative = inhibition) at 10uM"
1,CC1CN(C(=S)Nc2ccc(SC(F)F)cc2)CC(C)O1 (stereo not drawn),-27.6%
2,COc1ccc(-n2c(SCC(=O)C(C)(C)C)nc3c(sc(=S)n3-c3ccccc3)c2=O)c(OC)c1,21.3%
3,COCC(C)NC(=O)c1cc2cccc([N+](=O)[O-])c2[nH]1 (stereo not drawn),11.9%
4,CC(=O)C1C(c2ccco2)c2c(noc2C)CC1(C)O (stereo not drawn),0.959%
5,CC1CCC/C(=N\NC(=O)c2ccncc2)C1 (stereo not drawn),13.3%
6,COc1cccc(CNS(=O)(=O)c2c(C(=O)N3CCCCCC3)c(C)n(C)c2C)c1,-8.55%
7,O=S(=O)(NCCSc1ccc(Cl)cc1)c1ccc2c(c1)OCCO2,-11.6%
8,Cn1c(=O)c2c(nc(SCC(=O)O)n2Cc2cccc(C(F)(F)F)c2)n(C)c1=O,-10.2%
9,O=c1[nH]nc(Cc2ccc(-c3cccc(Cl)c3)o2)c2ccccc12,6.41%
10,O=c1c2[nH]c3ccccc3c2nc2n1CCCS2,-27%
11,COc1ccc(CNC(=O)CN2C(=O)NC(C)(c3ccc(Cl)cc3)C2=O)cc1 (stereo not drawn),-8.82%
12,O=C(Nc1ccc(N2CCN(Cc3ccccc3)CC2)cc1)c1cccnc1,-14.4%
13,COc1ccc(CC(=O)N2CCN(c3ccccc3OC)CC2)cc1,13.2%
14,O=C(O)c1cccc(N/N=C/c2cn(-c3ccccc3)nc2-c2cccs2)c1,8.16%
15,COc1ccccc1/C=C/CN1CCCC(CCC(=O)NCc2ccccc2F)C1 (stereo not drawn),-65.7%
16,COc1ccccc1CNC(=O)c1ccc(SC)cc1OC,-32.7%
17,COc1ccc(C)cc1NC(=O)CN1c2cccc3cccc(c23)S1(=O)=O,1.3%
18,N/C(CC1CC1(Cl)Cl)=N\OC(=O)c1ccccc1 (stereo not drawn),3.68%
19,CCCC(=O)Nc1nn(CC(C)C)c2nc3cc(C)ccc3cc12,19.4%
20,Cc1ccc(C(=O)N2CCCC(C(=O)c3cc(F)ccc3F)C2)s1 (stereo not drawn),-19.4%
21,CCOc1ccc(N2Cc3ncccc3C2=O)cc1,-7.23%
22,NNC(=O)c1[nH]c2ccc(Cl)cc2c1-c1ccccc1,6.15%
23,Cc1ccc(NC(=O)c2ccc(Nc3c([N+](=O)[O-])cc([N+](=O)[O-])cc3[N+](=O)[O-])cc2)cc1,1.02%

row,Compound,"hERG current change (%, negative = inhibition) at 10uM"
1,COc1ccc(C(=O)NNC(=O)c2ccc3ccccc3n2)cc1,-42.9%
2,COc1cc(-c2nnc(COC(=O)c3cc(C)nc4ccc(C)cc34)o2)cc(OC)c1OC,-11.1%
3,COc1ccc(Cl)cc1C(=O)NCCN1CCOCC1,-2.2%
4,CCSc1ncc(Cl)c(C(=O)Nc2ccccc2)n1,-23.9%
5,COc1ccc(CCNC(=O)CN(CCc2ccccc2)S(C)(=O)=O)cc1OC,13.9%
6,Cc1cc(=S)cc(C)n1CCCO,8.18%
7,Cc1ccc(OCC(=O)Nc2cc(S(=O)(=O)N3CCCCC3)ccc2C)c([N+](=O)[O-])n1,-7.58%
8,CCC(c1nnc(SCCNCCO)n1CCN1CCOCC1)N(C)C.O=C(O)C(=O)O (stereo not drawn),21%
9,COc1ccc(C(=O)O/N=C2\CCS(=O)(=O)c3sccc32)cc1,8.4%
10,Cc1ccc(C)c(S(=O)(=O)N2CCCC2CNC(=O)C(=O)NCc2ccco2)c1 (stereo not drawn),-54.2%
11,CC12CC(O)C3c4ccc(O)cc4CCC3C1CC/C2=N\O (stereo not drawn),3.28%
12,CCOC(=O)c1[nH]c2ccc(C)cc2c1N,10.9%
13,O=C(O)c1ccccc1/C=N/NC(=O)c1cc(-c2ccco2)nc2ccccc12,9.43%
14,CN(Cc1ccccc1)C(=O)CSc1nc2ccccc2[nH]1,6.53%
15,O=C1C2C3C=CC(CC3)C2C(=O)N1/N=C/c1ccc(O)c(O)c1 (stereo not drawn),-30.7%
16,COC(=O)CSC1=C(C#N)C(c2cccc(OC)c2)CC(=O)N1 (stereo not drawn),5.43%
17,CCN1C(=O)OC2(CCCCC2)C1(C)O (stereo not drawn),15.4%
18,CCN(CC)CCSc1nc(O)c(-c2ccccc2)c(=O)n1-c1ccccc1.Cl,12.1%
19,CCOC(=O)c1c(C)nsc1NC(=O)c1ccco1,-4.79%
20,Cc1ccc(NC(=O)c2cc3ccccc3o2)cc1Cl,19.7%
21,COc1ccc(-c2nn(-c3ccccc3)cc2C(=O)Nc2nc(CC(C)=O)ns2)cc1,17.4%
22,CN1C(=O)CSC1=NCC12CC3CC(CC(C3)C1)C2,-19.6%
23,Cn1nnnc1SCC(=O)NCCCc1ccccc1,-10.5%

row,Compound,"hERG current change (%, negative = inhibition) at 10uM"
1,COc1ccc2ccccc2c1CNCc1ccccn1.Cl,-51.8%
2,CCc1nnc(NC(=O)CCC(=O)N2CCN(Cc3ccc(C)cc3C)CC2)s1,-28.2%
3,O=C(COc1ccccc1[N+](=O)[O-])Nc1cccc(S(=O)(=O)NC2=NCCCCC2)c1,12.6%
4,CCOC(=O)c1c(NC(=O)c2nn(CC)cc2Br)sc2c1CCCCC2,8.6%
5,COc1ccccc1NC(=O)CCC(=O)N(Cc1ccc(OC)c(OC)c1)c1nccs1,14.8%
6,CCc1c(C)sc(NC(=O)c2ccc(Br)o2)c1C(=O)OC,25.3%
7,O=C(Cc1ccccc1)Nc1ccccc1C(=O)Nc1ccccc1,-8.32%
8,Cc1cc(C)n(C(=O)Cc2cn3ccsc3n2)n1,8.89%
9,Cc1ccc(-c2nn(CCC(=O)O)cc2CCC(=O)O)cc1,5.78%
10,O=C(c1ccco1)N1CCN(C(=S)Nc2cc(F)cc(F)c2)CC1,-16.5%
11,Cc1ccc(NC(=S)NC(=O)c2ccc(-c3ccccc3)cc2)c(C)c1,5.77%
12,O=C(COCc1cc(-c2ccc3c(c2)OCO3)on1)Nc1cccnc1Cl,13.3%
13,Cc1cc(C(=O)Nc2ccccc2C)n(-c2ccccc2)n1,16.5%
14,CCc1nc(SCC(=O)N2CCN(c3ccccc3)CC2)c2oc3ccccc3c2n1,-5.14%
15,CCCN1CCC(=O)N([C@H](COc2ccccc2)CC(C)C)CC1,-81.9%
16,O=C1c2ccccc2C(=O)c2c1cccc2N1CCOCC1,-30.4%
17,CN(C)/C=C(\C#N)C(=O)N/N=C/c1ccc(F)cc1,-10.1%
18,O=C(CCCCCCC(=O)Nc1ccccc1)NO,9.71%
19,CCCn1cc(CN2CCC(n3nccc3NC(=O)c3ccccc3)CC2)c(C)n1,-11%
20,CC(C)(CO)NC(=O)C(Cc1ccccc1)N1C(=O)c2ccccc2C1=O (stereo not drawn),17%
21,C=C(CO)C1Cc2cc(C(C)=O)ccc2O1 (stereo not drawn),8.58%
22,Cc1c(-n2c(SCC(=O)NC(C)C)nc3ccccc3c2=O)c(=O)n(-c2ccccc2)n1C,11.1%
23,OCCOCCn1c(C(CO)Nc2nc(-c3ccc(Cl)cc3)cs2)nc2ccccc21 (stereo not drawn),-23.4%

row,Compound,"hERG current change (%, negative = inhibition) at 10uM"
1,Cc1noc(C)c1C(=O)Nc1ccc2c(c1)CCC2,-3.4%
2,CCCn1nc(C(=O)NNC(=O)Cc2ccc(S(=O)(=O)N3CCOCC3)s2)c2ccccc2c1=O,-27.5%
3,COCCCN1C(=O)c2ccc(C(=O)NCc3ccco3)cc2C1=O,11%
4,CCn1ncc(C2=NOC(C(=O)NCCc3ccccc3)C2)c1C (stereo not drawn),5.33%
5,CCOC(=O)Nc1ccc2c(c1)N(C(=O)CCN1CCN(CCO)CC1)c1ccccc1S2.Cl,-27.5%
6,COCCNC(=O)c1ccc2c(c1)ncn2-c1cccc(C)c1,-5.84%
7,CCc1ccccc1OC[C@@H](O)CN[C@H]1CCCc2ccccc21.O=C(O)C(=O)O,-24.7%
8,S=C(NCc1ccc(Cl)c(Cl)c1)Nc1ccc2c(c1)OCO2,-6.19%
9,Cc1c(C(=O)OCC(=O)N2CCC(C)CC2)oc2ccccc12,-29.6%
10,COc1ccccc1-c1ccc2nnc(SCC(=O)N3CCCC3)n2n1,5.43%
11,O=C(C1CCN(S(=O)(=O)c2cccc3cccnc23)CC1)N1CCN(C2CCCC2)CC1,11.5%
12,CCc1ccc(C(=O)Nc2cccc(-c3nn[nH]n3)c2)s1,16.9%
13,COc1ccc(CC(NC(C)=O)C(=O)N2CCN(C(=O)Nc3cccc(F)c3)CC2)cc1OC (stereo not drawn),13.6%
14,COc1cc(CCC(=O)Nc2ccc(Cl)c(C(F)(F)F)c2)cc(OC)c1OC,13.1%
15,CC1CC(C)CN(c2ccc(NS(=O)(=O)c3ccccc3)cc2C(=O)O)C1 (stereo not drawn),-10.6%
16,CCN(CC)c1nc2ccccc2[nH]c1=O,-2.02%
17,Cc1ccc(Nc2nnc(-c3ccncc3)s2)c(Br)c1,-59.3%
18,Cc1cc(NC(=O)CSc2nc(N)c(NC(=O)c3ccccc3F)c(=O)[nH]2)no1,27.7%
19,CC(C)(CNS(=O)(=O)c1ccc2ccccc2c1)N1CCOCC1,-2.89%
20,C[C@H](NC(=O)[C@@H]1Cc2ccccc2CN1)C(=O)NCC1CCCO1 (stereo partly drawn),26.3%
21,CCCOc1ccccc1/C=N/NC(=O)C1CC1,3.97%

# Reference: paper PMC4336329 (PLoS ONE, 2015)
